# Measured values published in PMC10657422.
# By UniProt entry, the sequences of proteins in these tests, tags left out.
# UniProt Q96704: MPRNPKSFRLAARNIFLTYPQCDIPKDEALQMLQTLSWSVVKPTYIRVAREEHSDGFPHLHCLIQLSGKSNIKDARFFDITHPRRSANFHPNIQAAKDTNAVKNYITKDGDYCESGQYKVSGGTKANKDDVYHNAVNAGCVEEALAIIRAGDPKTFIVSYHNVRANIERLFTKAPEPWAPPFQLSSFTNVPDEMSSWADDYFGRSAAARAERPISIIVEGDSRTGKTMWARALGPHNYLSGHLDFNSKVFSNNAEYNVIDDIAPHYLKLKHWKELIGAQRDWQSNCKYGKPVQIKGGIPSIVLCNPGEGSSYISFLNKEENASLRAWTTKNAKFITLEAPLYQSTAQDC
# UniProt Q9M7Q7: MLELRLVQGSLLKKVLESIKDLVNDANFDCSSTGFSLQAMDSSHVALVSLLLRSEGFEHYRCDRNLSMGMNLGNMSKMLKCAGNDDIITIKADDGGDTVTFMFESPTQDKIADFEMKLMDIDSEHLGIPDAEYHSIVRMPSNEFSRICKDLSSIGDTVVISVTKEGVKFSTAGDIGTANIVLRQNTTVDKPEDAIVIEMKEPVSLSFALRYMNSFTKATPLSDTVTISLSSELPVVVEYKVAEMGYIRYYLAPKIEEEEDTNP
# Results are given in words; binding and its absence hold for the method and conditions named. For some of these results: In cells and extracts the contact can be indirect. Some entries that bind do so weakly or less than the wild type. Tags and fused reporters may be left off the sequences shown.
# B1: RPA1A (replication protein A 1A), yeast two-hybrid fusion (protein, UniProt Q9SKI4 1-640)
# chain: MPVSLTPNAITAIHDGDVNLKPLLQVLEIKMIGRSQERSQERYRFLISDGVSAQHAMVAVQLNDRVKSGQFEKGSIVQLIDYICSDVKGRKLIVVLNMETIVQQSETIGNPTIFGETDTEAQKTFSGTGNIPPPNRVVFNEPMVQHSVNRAPPRGVNIQNQANNTPSFRPSVQPSYQPPASYRNHGPIMKNEAPARVIPIAALNPYQGRWAIKARVTAKGDIRRYNNAKGDGKVFSFDLLDYDGGEIRVTCFNALVDRFYDVTEVGKVYLISKGSLKPAQKNFNHLKNEWEIFLESTSTVELCPDEDGSIPKQQFSFRPISDIENAENNTILDVIGVVTSVNPSVPILRKNGMETHRRILNLKDESGKAVEVTLWGEFCNRDGRQLEEMVDSAFHPVLAIKAGKVSDFSGKSVGTISSTQLFINPDFPEAHKLRTWFDYGGKDTASFSISRDTMPGGVSRNEIRKNVSQIKEEGLGRSDKPDWITVKATISFIKTDSFCYTACPLMIGDKQCNKKVTRSGTNRWLCDRCNQESDECDYRYLLQVQIQDHTGLTWITAFQETGEEIMGCPAKKLYAMKYELEKEEEFAEIVRDRLFHQYMLKLKIKEESYGDEQRVKMTVVKVDKVNYTSESKYMLDLLVR
# B2: CYCB1;1 (B1 type cyclin), yeast two-hybrid fusion (protein, UniProt P30183 1-428)
# chain: MMTSRSIVPQQSTDDVVVVDGKNVAKGRNRQVLGDIGNVVRGNYPKNNEPEKINHRPRTRSQNPTLLVEDNLKKPVVKRNAVPKPKKVAGKPKVVDVIEISSDSDEELGLVAAREKKATKKKATTYTSVLTARSKAACGLEKKQKEKIVDIDSADVENDLAAVEYVEDIYSFYKSVESEWRPRDYMASQPDINEKMRLILVEWLIDVHVRFELNPETFYLTVNILDRFLSVKPVPRKELQLVGLSALLMSAKYEEIWPPQVEDLVDIADHAYSHKQILVMEKTILSTLEWYLTVPTHYVFLARFIKASIADEKMENMVHYLAELGVMHYDTMIMFSPSMVAASAIYAARSSLRQVPIWTSTLKHHTGYSETQLMDCAKLLAYQQWKQQEEGSESSTKGALRKKYSKDERFAVALIPPAKALLTGTESA
# B3: FM-RAD51 (Flag-4Myc-tagged RAD51) (protein, UniProt P94102 1-342)
# chain: MTTMEQRRNQNAVQQQDDEETQHGPFPVEQLQAAGIASVDVKKLRDAGLCTVEGVAYTPRKDLLQIKGISDAKVDKIVEAASKLVPLGFTSASQLHAQRQEIIQITSGSRELDKVLEGGIETGSITELYGEFRSGKTQLCHTLCVTCQLPMDQGGGEGKAMYIDAEGTFRPQRLLQIADRFGLNGADVLENVAYARAYNTDHQSRLLLEAASMMIETRFALLIVDSATALYRTDFSGRGELSARQMHLAKFLRSLQKLADEFGVAVVITNQVVAQVDGSALFAGPQFKPIGGNIMAHATTTRLALRKGRAEERICKVISSPCLPEAEARFQISTEGVTDCKD
# B4: RAD51 (Arabidopsis radiation sensitive 51), yeast two-hybrid fusion (protein, UniProt P94102 1-342)
# chain: B3 chain
# B5: BRCA1 (breast cancer susceptibility gene 1), yeast two-hybrid fusion (protein, UniProt Q8RXD4 1-941)
# chain: MADTSHLERMGRELKCPICLSLYNSAVSLSCNHVFCNACIVKSMKMDATCPVCKIPYHRREIRGAPHMDSLVSIYKNMEDASGIKLFVSQNNPSPSDKEKQVRDASVEKASDKNRQGSRKGRASKRNEYGKTKEIDVDAPGPIVMKPSSQTKKRVQLLQNLSAESLTKPTESVETAEKPKDYTENTVIRLDEHPSLNKEGNLSPFFWLRDEDDGENSSQRTESDQLLGTTPVNVPSFSDLMDSDHESPSKEDEQQKPNPGDMFDSEMFEWTQRPCSPEILPSPVKAKVLGRDEIDLTQKKLPKVKVASSKCKNRKAGSARNTVARRSIGVSQEDNMESSAAATISEQQDSRGTSGTIIRNDVNTDENVKAKRATRSKAQSTRVQSDLNVSNEADGKQGTKRKRSSIKSSPAHPIAGPNELSLGTEIVGKGDQDQAHGPSDTHPEKRSPTEKPSLKKRGRKSNASSSLKDLSGKTQKKTSEKKLKLDSHMISSKATQPHGNGILTAGLNQGGDKQDSRNNRKSTVGKDDHTMQVIEKCSTINKSSSGGSAHLRRCNGSLTKKFTCAFCQCSEDTEASGEMTHYYRGEPVSADFNGGSKVIHVHKNCAEWAPNVYFNDLTIVNLDVELTRSRRISCSCCGLKGAALGCYNKSCKNSFHVTCAKLIPECRWDNVKFVMLCPLDASIKLPCEEANSKDRKCKRTPKEPLHSQPKQVSGKANIRELHIKQFHGFSKKLVLSCSGLTVEEKTVIAEFAELSGVTISKNWDSTVTHVIASINENGACKRTLKFMMAILEGKWILTIDWIKACMKNTKYVSEEPYEITMDVHGIREGPYLGRQRALKKKPKLFTGLKFYIMGDFELAYKGYLQDLIVAAGGTILRRRPVSSDDNEASTIVVFSVEPSKKKTLTQRRSDAEALAKSARARAASSSWVLDSIAGCQILVLI
# Tests used:
# [1] = molecular target: Rep (replication protein encoded by Cabbage Leaf Curl Virus), yeast two-hybrid bait (Cabbage Leaf Curl Virus (CaLCuV)) (UniProt Q96704); assay: two-hybrid; Gold Yeast Two-Hybrid System (Clontech); pGADT7 and pGBKT7 fusions co-transformed into yeast strain AH109; growth on medium minus Leu, Trp, His, Ade; 28 °C
# [2] = molecular target: T1, RPA1A (replication protein A 1A), yeast two-hybrid fusion (Arabidopsis thaliana) (UniProt Q9SKI4); assay: as above
# T1 sequence: B1 chain
# [3] = molecular target: T2, RAD51 (Arabidopsis radiation sensitive 51), yeast two-hybrid fusion (Arabidopsis thaliana) (UniProt P94102); assay: as above
# T2 sequence: B3 chain
# [4] = molecular target: HA-Rep (HA-tagged Rep of CaLCuV) (Cabbage Leaf Curl Virus (CaLCuV)) (UniProt Q96704); assay: co-IP; co-expressed in N. benthamiana leaves by agroinfiltration; total protein extract; IP buffer 40 mM Tris-HCl pH 8.0, 150 mM NaCl, 5 mM MgCl2, 1% glycerol, 0.6% Triton X-100; anti-HA agarose or anti-FLAG-M2 magnetic beads, 4 °C, 2 h; Turbo DNase (10 U/ml) in the buffer; blots with anti-Myc or anti-HA
# [5] = molecular target: T3, HA-CYCB1 (HA-tagged CYCB1;1) (Arabidopsis thaliana) (UniProt P30183); assay: co-IP; co-expressed in N. benthamiana leaves by agroinfiltration; total protein extract; IP buffer 40 mM Tris-HCl pH 7.0, 150 mM NaCl, 5 mM MgCl2, 1% glycerol, 0.6% Triton X-100; anti-HA agarose or anti-FLAG-M2 magnetic beads, 4 °C, 2 h; Turbo DNase (10 U/ml) in the buffer; blots with anti-Myc or anti-HA
# T3 sequence: B2 chain
# [6] = molecular target: T4, HA-BRCA1 (HA-tagged BRCA1) (Arabidopsis thaliana) (UniProt Q8RXD4); assay: as above
# T4 sequence: B5 chain
Molecule,binding [1],binding [2],binding [3],further results
"PCNA1 (proliferating cell nuclear antigen 1), yeast two-hybrid fusion (from UniProt Q9M7Q7 1-263)",binds,,,
B1,binds,,,
B2,,no binding,binds,
B3,,,,binding [4]: binds; binding [5]: binds; binding [6]: binds
B4,binds,,,
B5,,no binding,binds,
